PMC9911399, “Two distinct binding modes provide the RNA-binding protein RbFox with extraordinary sequence specificity”
Substitutions are numbered along the chain they refer to; changes in the protein carry UniProt numbers. Some of the results follow.

T1: RBFOX1 RRM RbFoxmut (Fox-RRM*) (Homo sapiens, UniProt Q9NWB1 109-208, R118D;E147R;N151S;E152T)
T1 sequence: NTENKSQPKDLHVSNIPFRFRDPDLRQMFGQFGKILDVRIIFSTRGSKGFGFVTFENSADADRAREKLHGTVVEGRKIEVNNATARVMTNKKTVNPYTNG

B1: CCCUAUG (DNA:RNA)
RNA: GGGAGACCGGAAUUCAGAUUGUCCCCCUAUGUUAAAUCCCGUCGUAGCCACCA
DNA 1: CAATCTGAATTCCGGTCTCCC
DNA 2: TGGTGGCTACGACGGGATT
B2: GCGAUGA (DNA:RNA)
RNA: B1 RNA with C25G, C27G, U28A, A29U, U30G, G31A
DNA 1: CAATCTGAATTCCGGTCTCCC
DNA 2: TGGTGGCTACGACGGGATT
B3: UGCUUUC (DNA:RNA)
RNA: B1 RNA with C25U, C26G, A29U, G31C
DNA 1: CAATCTGAATTCCGGTCTCCC
DNA 2: TGGTGGCTACGACGGGATT
B4: CUUAGUC (DNA:RNA)
RNA: B1 RNA with C26U, C27U, U28A, A29G, G31C
DNA 1: CAATCTGAATTCCGGTCTCCC
DNA 2: TGGTGGCTACGACGGGATT
B5: UCGUAUA (DNA:RNA)
RNA: B1 RNA with C25U, C27G, G31A
DNA 1: CAATCTGAATTCCGGTCTCCC
DNA 2: TGGTGGCTACGACGGGATT
B6: UACCGCU (DNA:RNA)
RNA: B1 RNA with C25U, C26A, U28C, A29G, U30C, G31U
DNA 1: CAATCTGAATTCCGGTCTCCC
DNA 2: TGGTGGCTACGACGGGATT
B7: CUCUCAC (DNA:RNA)
RNA: B1 RNA with C26U, A29C, U30A, G31C
DNA 1: CAATCTGAATTCCGGTCTCCC
DNA 2: TGGTGGCTACGACGGGATT
B8: CACGGAA (DNA:RNA)
RNA: B1 RNA with C26A, U28G, A29G, U30A, G31A
DNA 1: CAATCTGAATTCCGGTCTCCC
DNA 2: TGGTGGCTACGACGGGATT
B9: GAGUUGA (DNA:RNA)
RNA: B1 RNA with C25G, C26A, C27G, A29U, U30G, G31A
DNA 1: CAATCTGAATTCCGGTCTCCC
DNA 2: TGGTGGCTACGACGGGATT
B10: GAAUCGC (DNA:RNA)
RNA: B1 RNA with C25G, C26A, C27A, A29C, U30G, G31C
DNA 1: CAATCTGAATTCCGGTCTCCC
DNA 2: TGGTGGCTACGACGGGATT
B11: GAUUAAC (DNA:RNA)
RNA: B1 RNA with C25G, C26A, C27U, U30A, G31C
DNA 1: CAATCTGAATTCCGGTCTCCC
DNA 2: TGGTGGCTACGACGGGATT
B12: UCCAACU (DNA:RNA)
RNA: B1 RNA with C25U, U28A, U30C, G31U
DNA 1: CAATCTGAATTCCGGTCTCCC
DNA 2: TGGTGGCTACGACGGGATT
B13: AUGUUAG (DNA:RNA)
RNA: B1 RNA with C25A, C26U, C27G, A29U, U30A
DNA 1: CAATCTGAATTCCGGTCTCCC
DNA 2: TGGTGGCTACGACGGGATT
B14: ACGAUUA (DNA:RNA)
RNA: B1 RNA with C25A, C27G, U28A, A29U, G31A
DNA 1: CAATCTGAATTCCGGTCTCCC
DNA 2: TGGTGGCTACGACGGGATT
B15: CAUGGUC (DNA:RNA)
RNA: B1 RNA with C26A, C27U, U28G, A29G, G31C
DNA 1: CAATCTGAATTCCGGTCTCCC
DNA 2: TGGTGGCTACGACGGGATT
B16: AUAUGGC (DNA:RNA)
RNA: B1 RNA with C25A, C26U, C27A, A29G, U30G, G31C
DNA 1: CAATCTGAATTCCGGTCTCCC
DNA 2: TGGTGGCTACGACGGGATT
B17: ACUUCCA (DNA:RNA)
RNA: B1 RNA with C25A, C27U, A29C, U30C, G31A
DNA 1: CAATCTGAATTCCGGTCTCCC
DNA 2: TGGTGGCTACGACGGGATT
B18: AUCCGCG (DNA:RNA)
RNA: B1 RNA with C25A, C26U, U28C, A29G, U30C
DNA 1: CAATCTGAATTCCGGTCTCCC
DNA 2: TGGTGGCTACGACGGGATT
B19: UACGGAC (DNA:RNA)
RNA: B1 RNA with C25U, C26A, U28G, A29G, U30A, G31C
DNA 1: CAATCTGAATTCCGGTCTCCC
DNA 2: TGGTGGCTACGACGGGATT
B20: UAUGGAG (DNA:RNA)
RNA: B1 RNA with C25U, C26A, C27U, U28G, A29G, U30A
DNA 1: CAATCTGAATTCCGGTCTCCC
DNA 2: TGGTGGCTACGACGGGATT
B21: CCGGGUC (DNA:RNA)
RNA: B1 RNA with C27G, U28G, A29G, G31C
DNA 1: CAATCTGAATTCCGGTCTCCC
DNA 2: TGGTGGCTACGACGGGATT
B22: UGGAAUC (DNA:RNA)
RNA: B1 RNA with C25U, C26G, C27G, U28A, G31C
DNA 1: CAATCTGAATTCCGGTCTCCC
DNA 2: TGGTGGCTACGACGGGATT
B23: CGCCUCU (DNA:RNA)
RNA: B1 RNA with C26G, U28C, A29U, U30C, G31U
DNA 1: CAATCTGAATTCCGGTCTCCC
DNA 2: TGGTGGCTACGACGGGATT
B24: GAGCAAC (DNA:RNA)
RNA: B1 RNA with C25G, C26A, C27G, U28C, U30A, G31C
DNA 1: CAATCTGAATTCCGGTCTCCC
DNA 2: TGGTGGCTACGACGGGATT
B25: UCUAAUC (DNA:RNA)
RNA: B1 RNA with C25U, C27U, U28A, G31C
DNA 1: CAATCTGAATTCCGGTCTCCC
DNA 2: TGGTGGCTACGACGGGATT
B26: ACUUGAG (DNA:RNA)
RNA: B1 RNA with C25A, C27U, A29G, U30A
DNA 1: CAATCTGAATTCCGGTCTCCC
DNA 2: TGGTGGCTACGACGGGATT
B27: GGCACGC (DNA:RNA)
RNA: B1 RNA with C25G, C26G, U28A, A29C, U30G, G31C
DNA 1: CAATCTGAATTCCGGTCTCCC
DNA 2: TGGTGGCTACGACGGGATT
B28: UACGCCC (DNA:RNA)
RNA: B1 RNA with C25U, C26A, U28G, A29C, U30C, G31C
DNA 1: CAATCTGAATTCCGGTCTCCC
DNA 2: TGGTGGCTACGACGGGATT
B29: UUCUGCU (DNA:RNA)
RNA: B1 RNA with C25U, C26U, A29G, U30C, G31U
DNA 1: CAATCTGAATTCCGGTCTCCC
DNA 2: TGGTGGCTACGACGGGATT
B30: UCUUACA (DNA:RNA)
RNA: B1 RNA with C25U, C27U, U30C, G31A
DNA 1: CAATCTGAATTCCGGTCTCCC
DNA 2: TGGTGGCTACGACGGGATT
B31: GGGAGGC (DNA:RNA)
RNA: GGGAGACCGGAAUUCAGAUUGUCCGGGAGGCUUAAAUCCCGUCGUAGCCACCA
DNA 1: CAATCTGAATTCCGGTCTCCC
DNA 2: TGGTGGCTACGACGGGATT

Each binder was assayed against T1, RBFOX1 RRM RbFoxmut (Fox-RRM*) (assay: EMSA; HiTS-Eq, 1 nM pool, 10 min; buffer printed only for the single-RNA assays: 10 mM Tris pH 7.5, 150 mM NaCl, 3.4 mM EDTA, 0.001% NP-40, 30 C). Conditions: tags: His6 N-terminal (pET28a); label: 5' 32P.
Summary of the method: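 Relative association constants, normalised to the cognate motif, were derived by comparing read counts of each RNA species with those of the control reaction. The RNA sequenced was the free fraction, separated by 8% native PAGE after a 10 min equilibration in 50 µL of 1 nM 5′-radiolabelled RNA (7 randomized nucleotides) with increasing concentrations of purified wild-type or mutant RbFox RRM.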

Row | Binder | binding signal
1 | B1 | 0.101 KA relative to UGCAUGU
2 | B2 | 0.107 KA relative to UGCAUGU
3 | B3 | 0.0833 KA relative to UGCAUGU
4 | B4 | 0.104 KA relative to UGCAUGU
5 | B5 | 0.157 KA relative to UGCAUGU
6 | B6 | 0.0903 KA relative to UGCAUGU
7 | B7 | 0.0938 KA relative to UGCAUGU
8 | B8 | 0.0884 KA relative to UGCAUGU
9 | B9 | 0.0977 KA relative to UGCAUGU
10 | B10 | 0.512 KA relative to UGCAUGU
11 | B11 | 0.0762 KA relative to UGCAUGU
12 | B12 | 0.103 KA relative to UGCAUGU
13 | B13 | 0.213 KA relative to UGCAUGU
14 | B14 | 0.0953 KA relative to UGCAUGU
15 | B15 | 0.186 KA relative to UGCAUGU
16 | B16 | 0.138 KA relative to UGCAUGU

Row | Binder | binding signal
17 | B17 | 0.0542 KA relative to UGCAUGU
18 | B18 | 0.118 KA relative to UGCAUGU
19 | B19 | 0.0866 KA relative to UGCAUGU
20 | B20 | 0.105 KA relative to UGCAUGU
21 | B21 | 0.217 KA relative to UGCAUGU
22 | B22 | 0.458 KA relative to UGCAUGU
23 | B23 | 0.0759 KA relative to UGCAUGU
24 | B24 | 0.062 KA relative to UGCAUGU
25 | B25 | 0.0543 KA relative to UGCAUGU
26 | B26 | 0.13 KA relative to UGCAUGU
27 | B27 | 0.109 KA relative to UGCAUGU
28 | B28 | 0.0936 KA relative to UGCAUGU
29 | B29 | 0.0845 KA relative to UGCAUGU
30 | B30 | 0.106 KA relative to UGCAUGU
31 | B31 | 0.0783 KA relative to UGCAUGU
